Data on 54 compounds can be found in ChEMBL document CHEMBL4888484, “Replenishing the malaria drug discovery pipeline: Screening and hit evaluation of the MMV Hit Generation Library 1 (HGL1) against asexual blood stage Plasmodium falciparum ,using a nano luciferase reporter read-out” (2022).

The structures appear in SMILES notation. Out of some 150,000 compounds screened, about 540 (0.36%) showed an effect of 50% or more. The list shows a part of the results.

The assay concerns Plasmodium falciparum. As to the kind of experiment: Primary screen in NF54 nanoGlo assay, in single point, at 2uM, 72h; a lower Z score goes with more inhibition. The class given is functional, Erythrocyte. Conditions: timepoint 72 hour.
By % Inhibition is commonly meant the change of the read-out against control, counted positive when it falls. For `CCCC(=O)Nc1ccccc1C(=O)O`, the “% Inhibition” value is listed as 0% and the Z score is given as -0.03.
In the case of `Cn1cc(-c2ccc(C(=N)NO)cc2)[n+](C)c1`, the “% Inhibition” value is -31% and the Z score was found to be 3.58.
For `Cc1nnsc1CN(C)C(=O)c1ccc([C@@H]2CCCN2)s1`, in that order: -5% and 0.65.
For the compound `CCCc1ccccc1NC(=O)N1CCC(C)(C)S(=O)(=O)CC1`, the “% Inhibition” value is given as -9% and the Z score was 0.93.
With `Cc1ccc(CCNC(=O)C(C)(C)NC(=O)Nc2ccccc2)cn1`, the “% Inhibition” value is listed as -3% and the Z score was 0.38.
For `CCCc1ccc(CN2CC(N3CCCCC3)C2)o1`, in that order: -3% and 0.47.
The corresponding values for `Cc1cccc2c1NC1(CCCCCC1)C[C@@H]2C` are -16% and 1.94.
For `Cc1ccc(CN(Cc2ccc(F)cc2)Cc2nc(C(=O)Nc3ccc(C)c(C)c3)cs2)cc1`, in that order: -3% and 0.44.
For `Cc1nn(C)cc1C(=O)Nc1cc(Cl)ccc1NC1CC1`, the “% Inhibition” value came to 25% and the Z score is listed as -2.77.
For `Cc1cccc(O[C@@H](C)C(=O)NC(C)(C)C)c1`, in that order: -3% and 0.43.
The corresponding values for `CCC(NC(=O)c1cc(C)c(O)c(C)c1)[C@H]1C[C@H](O)C1` (stereo partly drawn) are -3% and 0.32.
For `CCOCC(=O)NC[C@H](OCCO)c1ccc(C)cc1`, in that order: 6% and -0.89.
On to `O=C1CCC2(CCN(C/C=C/c3ccc(F)cc3)CC2)CN1Cc1cccnc1`, for which the “% Inhibition” value is given as 8% and the Z score is -1.08.
The corresponding values for `C#C[C@H](CO)NC(=O)N[C@H]1C[C@H](c2ccc(F)cc2)C1` are -1% and 0.24.
Take `C#Cc1cccc(NC(=O)CCOCc2ccccc2)c1`: the “% Inhibition” value is given as -10% and the Z score is given as 1.89.
`FC(F)(F)c1ccc2sc(NC[C@H]3CCCO3)nc2c1`: the “% Inhibition” value is listed as -2% and the Z score worked out at 0.23.
The corresponding values for `CCn1cnnc1CN(C)Cc1cc2n(n1)CCCN(c1ccncc1)C2` are -17% and 2.64.
For `Cc1ccc(Cl)cc1N1CCN(C(=O)C2CCCC2)[C@@H](C)C1=O`, in that order: -1% and 0.08.
`CNc1ccc(NC(=O)Cc2c(C)noc2C)cn1`: the “% Inhibition” value is on record as -36% and the Z score is recorded as 4.21.
The corresponding values for `Cn1cc(C(=O)NCC2CCN(C(=O)c3ncc(F)cc3F)CC2)cn1` are -6% and 0.56.
For `CN(Cc1nccs1)C(=O)[C@@]1(C)CCCN(C(=O)c2ccccc2)C1`, in that order: -11% and 1.15.
The corresponding values for `O=C(C1CCN(S(=O)(=O)c2ccc(-c3ccn[nH]3)o2)CC1)N1CCN(c2ccccc2F)CC1` are -1% and 0.1.
Consider `N#Cc1ccccc1OCCCO[C@@H]1CCCCO1`, for which the “% Inhibition” value is -10% and the Z score is listed as 1.06.
For `CN(CCc1noc(-c2ccccc2)n1)S(=O)(=O)c1ccccc1Cl`, in that order: -2% and 0.37.
For `Cc1ccc(CCNc2ccccc2S(C)(=O)=O)cn1`, in that order: -6% and 0.78.
The corresponding values for `CCc1cccc(C)c1NC(=O)Cn1c(=O)n(CCc2cccs2)c(=O)c2sccc21` are 1% and -0.15.
As to `Cc1oc2ncn(CCC(=O)N[C@@H](C)Cc3ccco3)c(=O)c2c1C`, the “% Inhibition” value was -6% and the Z score was 1.08.
For `O=C(NC1(C(F)(F)F)CCOCC1)N1CCOC[C@@H]1CC1CC1`, in that order: -9% and 1.78.
For `O=S(=O)(c1ccc2c(c1)CCC2)N1CCC[C@H]1c1cccc(F)c1`, in that order: 5% and -0.64.
The corresponding values for `CC(c1ccccc1)(c1ccc(NC(=O)c2ccccc2)cc1)c1ccc(NC(=O)c2ccccc2)cc1` are -5% and 0.82.
`Cc1ccccc1-c1ncc(CN2CCC[C@H](Nc3ccc4c(c3)OCO4)C2)cn1`: the “% Inhibition” value was determined as 2% and the Z score is listed as -0.3.
The corresponding values for `COc1ccc(CC[C@H](C)NC(=O)c2c(C)noc2C)cc1` are -12% and 1.13.
For `CS(=O)(=O)c1ccc(CN2CC[C@H](N3CCOCC3)[C@H](CCCO)C2)cc1`, in that order: -14% and 1.84.
For `Cc1cnn([C@H]2CCN(Cc3csc(C4CCCC4)n3)C2)c1`, in that order: -1% and 0.18.
Consider `O=C1NC[C@@H](O)CC12CN(c1nc(C3CCCCC3)ns1)C2`, for which the “% Inhibition” value is recorded as 10% and the Z score is -1.05.
As to `Cn1ncnc1COc1ccccc1-c1nccs1`, the “% Inhibition” value is listed as -1% and the Z score is recorded as 0.24.
For `C=CCNC(=O)NC(=O)CN(C)C1CCOC(c2ccc(F)cc2)C1` (stereo not drawn), in that order: -1% and 0.18.
For `CCOc1cc(C(=O)N(C(=O)c2cc(OCC)c(OCC)c(OCC)c2)c2ccccc2C(F)(F)F)cc(OCC)c1OCC`, in that order: 32% and -3.64.
The corresponding values for `COc1ccc(-c2cc3c(N4CCN(C)CC4)nccn3n2)cc1OC` are 38% and -1.19.
Regarding `CC(C)(O)c1cnn(Cc2ccccc2)n1`, the “% Inhibition” value was -48% and the Z score is recorded as 5.61.
The corresponding values for `CCC(CC)NC(=O)c1cncn1-c1ccc(-c2cc(C)cc(C)c2)cc1` are -1% and 0.09.
As to `c1cc(-n2cnnc2)ccc1OC[C@@H]1CCCN2CCCC[C@H]12`, the “% Inhibition” value is listed as -18% and the Z score came to 3.01.
For the compound `C[C@H](NS(=O)(=O)c1ccccc1)C(=O)N1CCN(C(c2ccccc2)c2ccccc2)CC1`, the “% Inhibition” value is on record as -3% and the Z score is 0.59.
With `Cc1ccc(-c2coc(-c3ccc(NC(=O)Nc4ccc(F)cc4F)cc3)n2)c(C)c1`, the “% Inhibition” value worked out at 0% and the Z score came to 0.06.
`CCc1nc(CN(C)Cc2cc(C(=O)O)sc2C)cs1`: the “% Inhibition” value is on record as -4% and the Z score amounted to 0.7.
Take `Cc1nnc(Cc2ccc(NC(=O)NCC3(Cn4cccn4)CC3)cc2)[nH]1`: the “% Inhibition” value was -4% and the Z score is reported as 0.79.
As to `CCC[C@H](C)NC(=O)CN(c1ccc(Oc2ccccc2)cc1)S(=O)(=O)c1ccccc1`, the “% Inhibition” value is given as -9% and the Z score came to 1.31.
Consider `O=C(O)Cc1ccc(S(=O)(=O)N2CC3(CC3)c3ccccc32)cc1`, for which the “% Inhibition” value is reported as -10% and the Z score was 1.18.
The corresponding values for `O=C(CN1C(=O)CCC1=O)c1ccc(-c2ccccc2)cc1` are -7% and 1.
`O=C(c1cc(C2CC2)[nH]n1)N1CC(F)(F)C[C@H]1COc1ccncc1`: the “% Inhibition” value is listed as -11% and the Z score was 1.83.
The corresponding values for `CCn1nc(C(=O)N2CCCCC2)c2c1CCOC2` are 3% and -0.33.
The corresponding values for `Nc1c(F)cc(Cl)cc1C(=O)N1CCC(c2ccn[nH]2)CC1` are -4% and 0.37.
The corresponding values for `Cc1cccc(-c2nnc3c4ccccc4nc(N4CCN(C(=O)c5ccc(Cl)cc5)CC4)n23)c1` are 4% and -0.5.
With `CCCn1c(-c2ccc(=O)[nH]c2)nc2ccccc21`, the “% Inhibition” value amounted to 5% and the Z score is -0.94.
